Results on 43 compounds are retold here after ChEMBL document CHEMBL4888484, “Replenishing the malaria drug discovery pipeline: Screening and hit evaluation of the MMV Hit Generation Library 1 (HGL1) against asexual blood stage Plasmodium falciparum ,using a nano luciferase reporter read-out” (2022).

Hit rate of the full screen: of about 150,000 compounds, about 540 (0.36%) showed an effect of 50% or more. This is one part of the list.

The assay has as its system Plasmodium falciparum. In words: Primary screen in NF54 nanoGlo assay, in single point, at 2uM, 72h; a lower Z score goes with more inhibition. The class given is functional, Erythrocyte. The settings on record: timepoint 72 hour.
By % Inhibition is commonly meant the change of the read-out against control, counted positive when it falls. `Cc1cc(CN2CCN(C(=O)[C@H](C)n3cnc4c(N)ncnc43)CC2)on1`: the “% Inhibition” value is given as -6% and the Z score stood at 1.12.
Consider `CN1CCC(n2nccc2NC(=O)c2cnn(Cc3ccccc3)c2)CC1`, for which the “% Inhibition” value is reported as -11% and the Z score is recorded as 1.62.
Consider `Cc1ccc(C(=O)N2CCC(n3ccnc3-c3ncc[nH]3)CC2)cc1`, for which the “% Inhibition” value turned out to be 5% and the Z score is -0.87.
For `COc1ccccc1OC/C=C/Cn1ccnc1`, the “% Inhibition” value is -9% and the Z score is reported as 0.93.
For the compound `Cc1ccc(-c2nn(-c3ccccc3)cc2C(=O)N2CC[C@H](N)C2)o1`, the “% Inhibition” value is listed as -10% and the Z score is listed as 0.86.
Consider `CCC(C)CN1C(=O)C(CC(C)C)NC12CCN(C(=O)c1ccc(C)cc1)CC2` (stereo unspecified), for which the “% Inhibition” value is reported as -10% and the Z score stood at 1.39.
For `O=C(Nc1ccc2c(c1)OCO2)c1ccc2c(c1)C(=O)N(Cc1ccncc1)C2=O`, in that order: 0% and 0.05.
As to `CN(Cc1cc(C2CC2)nc2ccccc12)C1CCOCC1`, the “% Inhibition” value is reported as -16% and the Z score was 1.92.
Turning to `CCn1ccnc1CNc1nc2cc(Cl)ccc2n1C`, the “% Inhibition” value was -8% and the Z score is 0.82.
Regarding `CS(=O)(=O)c1ccc(N)cc1Cl`, the “% Inhibition” value is recorded as 5% and the Z score is on record as -0.75.
Turning to `COc1ccc(NC(=O)C(=O)N(C)CCN(C)c2ccccc2)cn1`, the “% Inhibition” value came out at 6% and the Z score was -0.73.
In the case of `CO[C@H]1CCN(C2CCN(S(=O)(=O)c3ccc(Oc4cccc(C)c4)cc3)CC2)C1`, the “% Inhibition” value is listed as -7% and the Z score was determined as 0.88.
As for `O=C(Cc1ccc(N(Cc2cccc(F)c2)C(=O)c2cccc(F)c2)cc1)NCCN1CCCCC1`, the “% Inhibition” value was 57% and the Z score is -2.67.
Regarding `Cc1cccc(NC(=O)C2CN(S(=O)(=O)C3CC3)C2)n1`, the “% Inhibition” value is listed as -10% and the Z score is on record as 1.28.
Regarding `Cc1cc(-c2ccc(C)c(S(=O)(=O)NCC[C@H](C)N3CCCCCC3)c2)on1`, the “% Inhibition” value is listed as -14% and the Z score was 1.81.
Turning to `C[C@@H](Cc1ccccc1F)NC(=O)NCCNC(=O)C1CCCC1`, the “% Inhibition” value is listed as -6% and the Z score worked out at 0.7.
Regarding `CC(C)c1nnsc1CN1CCO[C@H](c2ccc(Cl)cc2)C1`, the “% Inhibition” value is listed as -12% and the Z score is listed as 1.5.
For `CCc1cc(C(=O)N2CCN(C(=O)C3CCC3)[C@@H]3CS(=O)(=O)C[C@@H]32)no1`, in that order: -3% and 0.41.
With `Cc1ccc2c(c1)CCCN2C(=O)CN1[C@@H]2CC[C@H]1C[C@@H](O)C2`, the “% Inhibition” value worked out at 1% and the Z score is -0.12.
Take `CN(Cc1ccoc1)C(=O)[C@@H]1COCC(=O)N1Cc1ccccc1`: the “% Inhibition” value was found to be 6% and the Z score is -1.01.
On to `Cc1noc(C)c1CNC(=O)c1cnc(Cc2c(Cl)cccc2Cl)nc1O`, for which the “% Inhibition” value is recorded as -9% and the Z score stood at 1.28.
In the case of `CC(C)CC(=O)N1CCC[C@H]1c1ccncc1`, the “% Inhibition” value is -5% and the Z score is reported as 0.64.
Turning to `CC(C)CCNCC1(C(=O)N(C)C)CCCC1`, the “% Inhibition” value is on record as -11% and the Z score is 1.34.
`Cc1cc(F)ccc1-c1cccc(C(=O)N2CC[C@@]3(O)CCNC[C@H]3C2)c1`: the “% Inhibition” value is -11% and the Z score is listed as 1.81.
As for `Brc1cccc2c1cnn2CN1CCOCC1`, the “% Inhibition” value was -10% and the Z score is reported as 1.25.
Take `Cc1nc2ccccc2n1CCN[C@H](C1CCOCC1)C1CC1`: the “% Inhibition” value was -3% and the Z score was 0.49.
For `c1nc(CNc2ncc(C3CCOCC3)s2)cs1`, in that order: -13% and 1.59.
Regarding `COc1cc(C)c(CN2CCC(CCC(=O)N(C)Cc3ccccc3)CC2)cc1C`, the “% Inhibition” value is -10% and the Z score was determined as 1.37.
With `COc1nccc2c(NCc3c(C)nn(C)c3C)cccc12`, the “% Inhibition” value is -1% and the Z score was determined as 0.12.
Take `CCCCn1c(=O)[nH]c2cc(-c3nc(-c4ccc(Cl)cc4)no3)ccc2c1=O`: the “% Inhibition” value is -3% and the Z score stood at 0.3.
In the case of `N#Cc1cncc(N2CCCC[C@H]2C2CCC2)n1`, the “% Inhibition” value was -22% and the Z score is given as 2.39.
In the case of `CN(C1(C#N)CCC1)S(=O)(=O)c1ccccc1Cl`, the “% Inhibition” value was -14% and the Z score was found to be 2.52.
Regarding `C[C@@H](C(=O)NCCS(N)(=O)=O)c1cccc(Cl)c1`, the “% Inhibition” value is -5% and the Z score is listed as 0.72.
For `Cc1nc(-c2ccncc2)nc(NCCS(=O)(=O)NC(C)C)c1C` the same measures were 4% and -0.39.
As for `COc1ccc(NC(C)(C)C(=O)N2CC[C@H](N3CCCCC3)C2)cc1`, the “% Inhibition” value is recorded as -16% and the Z score is reported as 1.52.
For `O=C(Nc1nc(C(=O)NCc2cccnc2)co1)c1ccccc1`, the “% Inhibition” value was -7% and the Z score was 1.03.
For `Cc1ccc(CNC(=O)NCCCCn2ccnc2C)c(C)c1` the same measures were -4% and 0.49.
Take `COc1ccc(C(=O)N(C)C[C@H]2CCCO2)cn1`: the “% Inhibition” value is on record as -6% and the Z score came to 0.54.
Turning to `COc1ccc(-c2nc(-c3ccccn3)nn2CCO)c(OC)c1`, the “% Inhibition” value is reported as -9% and the Z score came out at 1.68.
Consider `Cc1ncsc1CCC(=O)N1CCn2nc([C@H](C)O)cc2C1`, for which the “% Inhibition” value stood at 1% and the Z score is on record as -0.21.
In the case of `CN(CC1CC1)c1ccc(C(F)(F)F)cc1C(=O)O`, the “% Inhibition” value was -11% and the Z score was found to be 1.69.
With `COC[C@@H]1C[C@@H](O)CN1C(=O)c1ccc(CNC(=O)c2cccs2)cc1`, the “% Inhibition” value is recorded as 2% and the Z score is on record as -0.32.
For `CCOc1ccc(-n2ncc(C(=O)Nc3cc(-n4cnnn4)ccc3C)c2C)nn1` the same measures were 26% and -2.99.
